# Source: PMC6919601, “Identification of Plasmodium dipeptidyl aminopeptidase allosteric inhibitors by high throughput screening” (PLoS ONE, 2019)
# “And” between values parts separate entries of the source, which are not always exact repeats. Identical values can stand only once. Screen size: about 110,000 compounds; about 230 (0.21%) showed an effect of 50% or more. The list shows a part of the results.
# Molecular target: DPAP1 (Plasmodium falciparum, UniProt Q8IIJ9)
# Assay: primary screen, percent inhibition; read by cleavage of a fluorogenic dipeptide substrate; higher = more effect of the substance
# Design: species or system P. falciparum D10 trophozoite lysates; single well
# 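Further: 30 min substrate incubation versus DMSO and 10 µM JCP410 controls.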
# Chain of DPAP1 (Q8IIJ9 whole entry, looked up): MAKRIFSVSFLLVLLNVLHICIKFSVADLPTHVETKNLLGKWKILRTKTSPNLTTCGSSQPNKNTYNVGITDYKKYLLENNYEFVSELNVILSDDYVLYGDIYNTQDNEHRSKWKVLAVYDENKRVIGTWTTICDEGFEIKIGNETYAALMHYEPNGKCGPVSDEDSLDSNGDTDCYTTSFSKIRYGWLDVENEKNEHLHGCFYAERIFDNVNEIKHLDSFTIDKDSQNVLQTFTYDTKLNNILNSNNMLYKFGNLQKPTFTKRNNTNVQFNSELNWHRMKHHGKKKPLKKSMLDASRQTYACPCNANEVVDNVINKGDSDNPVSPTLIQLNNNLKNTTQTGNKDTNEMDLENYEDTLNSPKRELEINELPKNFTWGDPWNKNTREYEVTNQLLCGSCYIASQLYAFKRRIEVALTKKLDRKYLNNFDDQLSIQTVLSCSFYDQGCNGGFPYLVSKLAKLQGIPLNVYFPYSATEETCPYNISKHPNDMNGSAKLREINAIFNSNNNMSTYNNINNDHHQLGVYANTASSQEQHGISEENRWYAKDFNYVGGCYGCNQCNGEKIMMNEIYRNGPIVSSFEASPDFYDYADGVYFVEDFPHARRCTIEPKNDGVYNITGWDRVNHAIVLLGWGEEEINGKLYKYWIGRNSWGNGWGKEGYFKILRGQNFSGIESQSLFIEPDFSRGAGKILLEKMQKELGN
row,Structure (SMILES),% Inhibition @ 10 uM
1,Fc1cccc(Cl)c1CN1CCOCC1,4.28%
2,Oc1nnc(-c2ccccc2)c2ccccc12,-0.999%
3,CC(C)COc1ccc(/C=C2/NC(=O)N(Cc3ccc(F)cc3)C2=O)cc1,3.54%
4,Cc1ccc(C(=O)CSc2nnc(-c3cccnc3)n2N)cc1,-0.0626%
5,CCOCCCNC(=O)c1cc2sc(Cl)cc2n1CC,-4.85%
6,O=C(O)C1C2C=CC(O2)C1C(=O)Nc1ccc2c(c1)OCCO2 (stereo not drawn),-1.98%
7,CCn1c(C(=O)NCCCc2ccccc2)cc2sccc21,-6.68%
8,CCCCNC(=O)CCNC(=O)c1ccc(C(C)(C)C)cc1,-1.99%
9,N#CCNC(=O)[C@H](Cc1ccc2ccccc2c1)NC(=O)c1csc(-c2ccccc2[N+](=O)[O-])n1,3.66%
10,COC(=O)c1ccc(C2Oc3c(OC)cccc3C3CC(c4cccs4)=NN32)cc1 (stereo not drawn),-1.11%
11,CCOc1ccc(-c2cc(C(=O)NC(C)CC)c3ccccc3n2)cc1 (stereo not drawn),-5.92%
12,CC(C)n1c(N2CCCCCC2)nc2c1c(=O)n(C)c(=O)n2C,-1.55%
13,O=C(c1cc(S(=O)(=O)N2CCCCC2)ccc1Cl)N1CCCCC1,-5.11%
14,CC(NS(=O)(=O)c1ccc(CCC(=O)N2CCc3ccccc3C2)cc1)c1ccccc1 (stereo not drawn),2.4%
15,CC(C)OCCCNC(=O)c1ccc(CSc2nc3cccnc3n2Cc2ccc(F)cc2)cc1,3.46%
16,O=C(Nc1nc2c(Cl)cccc2s1)c1ccccc1F,3.53%
17,Cc1ccc(/C=C/c2nc(N)nc(-c3ccccc3O)n2)o1,2.31%
18,Cc1ccc(-c2c(N3CCCCC3)c(=O)c2=O)cc1,1.97%
19,Cc1nc2c(-c3ccccc3)c(C)nn2c(C)c1CCC(=O)NCCCOC(C)C,1.26%
20,CC1CCN(C(=O)CSc2nc(O)c3cnn(-c4ccc(F)cc4)c3n2)CC1,-3.78%
21,CCOC(=O)N1CCN(C(=O)C2CC(c3ccc(OC)cc3)=NO2)CC1 (stereo not drawn),-3.45%
22,CC(C)NC(=O)CN1C(=O)C(=O)c2ccccc21,1.81%
23,N#CCNC(=O)[C@H](CCc1cc(Cl)ccc1Cl)NC(=O)OCc1ccccc1,-1.5%
24,COc1cccc(C(=O)NC(c2ccco2)c2cc(Cl)c3cccnc3c2O)c1 (stereo not drawn),-1.48%

row,Structure (SMILES),% Inhibition @ 10 uM
1,CN(C)S(=O)(=O)c1ccc(N)c([N+](=O)[O-])c1,-6.22%
2,CC(C)N1C(=O)/C(=C/Nc2ccc(S(N)(=O)=O)cc2)C(=O)N(CCc2ccccc2)C1=O,1.4%
3,CCOC(=O)c1cc2c(=O)n3ccccc3nc2n(C(C)C)/c1=N\C(=O)c1ccc(C(C)(C)C)cc1,2.06%
4,COc1ccc(CC(=O)N2CCc3ccccc32)cc1,2.46%
5,O=C(Cn1ncc2c1-c1ccccc1OC2)N1CCN(Cc2ccc3c(c2)OCO3)CC1,1.72%
6,O=C(Nc1ccc(-c2nc3cc(Cl)ccc3o2)cc1)c1cccs1,-1.98%
7,CCN1C(=O)S/C(=C\c2ccc(N3CCOCC3)o2)C1=O,-4.02%
8,CCOc1ccccc1N1CCN(C(=O)C(C)Oc2cccc(Cl)c2)CC1 (stereo not drawn),1.27%
9,NC(=O)c1cc2n(n1)C(C(F)(F)F)CC(c1ccc(Cl)c(Cl)c1)N2 (stereo not drawn),2.38%
10,CC1=CN2C(=N)/C(=C/c3coc4ccccc4c3=O)C(=O)N=C2S1,-3.95%
11,COCCCNS(=O)(=O)c1ccc2[nH]c3c(c2c1)CCCCC3,-3%
12,COc1ccc(N2C(=O)CCc3c(-c4ccccc4)cc(N(C)C)cc32)cc1,1.63%
13,COCc1c(Br)c(C)nc2sc3c(=O)n(Cc4ccccc4)nnc3c12,4.13%
14,COc1cc2c(cc1C=O)OCO2,1.63%
15,CN1C(=O)NC(c2ccc(Br)cc2)C2=C1CCCC2=O (stereo not drawn),4.83%
16,CCNc1cc(N(C)C)nc(Oc2ccc(OCCOc3ccccc3C)nn2)n1,0.778%
17,COc1cc(C2C(C#N)=C(n3cccc3)OC3=C2C(=O)CCC3)cc(OC)c1OC (stereo not drawn),5.93%
18,Cn1ncc2c(NCCC3=CCCCC3)ncnc21,3.2%
19,CCNC(=O)CSc1nc2ccsc2c(=O)n1Cc1ccccc1Cl,5.46%
20,CC/C(=N\CCCn1ccnc1)c1c(C(F)(F)F)nn(-c2nc3ccccc3s2)c1O,4.55%
21,CN1CCN(C(=O)c2cc3nc(-c4ccccc4)cc(-c4ccccc4)n3n2)CC1,4.57%
22,COc1ccccc1NC(=O)CN(Cc1ccc(Cl)cc1)S(=O)(=O)c1ccccc1,2.79%
23,CS(=O)(=O)C1=NN2C(=N)/C(=C\c3ccc(OCc4ccc5c(c4)OCO5)cc3)C(=O)N=C2S1,0.208%
24,Cc1oc2c(C)c3oc(=O)c(CC(=O)O)c(C)c3cc2c1-c1ccccc1,-4.75%

row,Structure (SMILES),% Inhibition @ 10 uM
1,O=c1oc2ccccc2cc1C1=Nn2c(nnc2-c2ccc3c(c2)OCO3)SC1,13.3%
2,Cc1csc(NC(=O)CCc2c(C)nc3c4cccnc4nn3c2C)n1,1.62%
3,CCCCNC(=O)c1nc2ncc([N+](=O)[O-])cn2n1,-0.636%
4,CSc1cccc(NC(=O)CN(C2CCCCC2)S(=O)(=O)c2ccc(F)cc2)c1,-0.68%
5,O=C(Nc1ccc(S(=O)(=O)Nc2ncccn2)cc1)c1cccc(COc2ccccc2Cl)c1,4.01% and -2.74%
6,O=C(CCn1c(=O)[nH]c2ccsc2c1=O)N1CCN(c2ncccn2)CC1,-4.06%
7,CSc1ccc(CCNC(=O)Cc2c(C)nc3c(-c4ccccc4)c(C)nn3c2C)cc1,2.93%
8,COc1ccccc1CNS(=O)(=O)c1ccc2[nH]c3c(c2c1)CCCC3,1.46%
9,CCCOc1ccc(C2C(C#N)=C(N)OC3=C2C(=O)CC(C)(C)C3)cc1OC (stereo not drawn),-0.759%
10,Cc1cc(OCc2ccc(F)cc2)nc(-c2ccccc2O)n1,-0.239%
11,Cc1cccc(NS(=O)(=O)c2ccc([N+](=O)[O-])cc2)c1C,-3.27%
12,O=C(Cc1ccc(F)cc1F)Nc1ccc(Cl)cc1Cl,1.74%
13,O=C(C1CCCN(S(=O)(=O)c2cccnc2)C1)N1CCn2c1nc1ccccc12 (stereo not drawn),-1.03%
14,CC(C)(C)c1cc(N/C(=N\S(=O)(=O)c2ccccc2)c2ccccc2)no1,2.31%
15,CC1=[N+](CC(=O)NC(C)(C)C)CCc2ccccc21,-4.14%
16,CC(C)NC(=O)c1ccccc1-c1nc2ccccc2[nH]1,2.7%
17,CCc1nc2c(sc3nc(C)cc(COC)c32)c(=O)n1CCOC12CC3CC(CC(C3)C1)C2,2.62%
18,Cc1ccc(-n2nc3c(=O)n(CCCC(=O)N4CCN(Cc5ccccc5)CC4)nc(C)c3c2C)cc1,-4.57%
19,C=CCOc1ccc(CNC(C)(C)CO)cc1,-5.34%
20,O=C(c1ccc(CS(=O)c2cccc(Cl)c2)o1)N1CCN(C2CCCCC2)CC1 (stereo not drawn),6.15%
21,FC(F)(F)c1ccc(CN2CCN(c3ccccn3)CC2)cc1,-0.294%
22,Cc1cc(C)c(C)c(S(=O)(=O)NCC(=O)N2CCN(c3ccccc3)CC2)c1C,-2.85%
23,OC1CCN(Cc2cc(Br)cs2)CC1,1.48%
24,O=C(c1ccccc1)N1CCC(c2nc(O)c3nnn(Cc4ccco4)c3n2)CC1,-2.28%

row,Structure (SMILES),% Inhibition @ 10 uM
1,O=C(NC(=O)c1ccc2ccccc2c1)Nc1cccc(Cl)c1,7.92%
2,Cc1nn(C)c2c1c(C(F)(F)F)cc(=O)n2CC(=O)NC(C)c1ccccc1 (stereo not drawn),2.31%
3,CC1=C(c2nc(-c3ccc(C)cc3)no2)C(c2ccc(F)cc2)NC(S)=N1 (stereo not drawn),1.68%
4,COCCNC(=O)C1CCN(c2nn3cc(-c4ccc(F)cc4)nc3s2)CC1,3.12%
5,CCOc1ccccc1CNC(=O)Cn1nc(C)n2cccc2c1=O,-5.44%
6,COc1ccccc1C(=O)Nc1ccc(Br)c(C(F)(F)F)c1,-6.18%
7,CCN(CC)S(=O)(=O)N1CCCC(C(=O)NCc2ccccc2)C1 (stereo not drawn),-0.519%
8,CC(C)c1ccc(OCC(=O)O/N=C(\N)c2ccncc2)c(Br)c1,3.87%
9,COc1cccc(C2C3=C(O)CCCC3=NC(C)=C2C(=O)Nc2nc3ccccc3s2)c1 (stereo not drawn),-2.68%
10,O=C(CC1CCCCC1)NCc1nc(-c2ccccc2)no1,-2.99%
11,COc1ccc(Br)cc1CNC(=O)COCc1cc(-c2cccs2)on1,3.37%
12,COc1ccc(C(=O)/C=C/c2cccc(Cl)c2Cl)c(OC)c1,-4.08%
13,Cc1ccccc1N1C(=O)/C(=C/c2c[nH]c3ccccc23)C(=O)NC1=S,7.56%
14,CCOC(=O)c1cnc2nc(C(F)(F)F)nn2c1O,-0.591%
15,O=C(O)c1c2c(nc3ccc(S(=O)(=O)N4CCC(C(=O)NCc5ccco5)CC4)cc13)CCCC2,0.291%
16,CCCc1c(C)nc2ccc(C(=O)O)cc2c1S,1.8%
17,CCOC(=O)c1c(C)n(C)c2ccc3c(c12)CN(Cc1ccccc1)CO3,0.146%
18,CCC(C)[C@H](NC(=O)OCc1ccccc1)C(=O)N[C@@H](CCc1ccccc1)C(O)CNS(=O)(=O)c1ccc2oc3ccccc3c2c1 (stereo partly drawn),-7.58%
19,CCOC(=O)c1c(NC(=O)/C=C/c2ccc(OC)cc2)sc2c1CCCC2,-0.712%
20,Cc1cc(NC(=O)NC23CC4CC(CC(C4)C2)C3)c2ccccc2n1,-1.96%
21,CCN(CC)CCN(C(=O)COc1ccccc1)c1nc2ccc(Br)cc2s1,6.99%
22,CCN1CCN(C(=O)c2cc(-c3ccc(Br)cc3)nc3ccccc23)CC1,-0.473%
23,Clc1ccc(-c2noc3ncnc(NCc4ccco4)c23)cc1,-11.6%
24,COc1cc(NC(=O)CS(=O)(=O)Cc2ccccc2)c(OC)cc1Cl,5.18%
